In all, about 52,000 compounds went through this assay and about 4,300 (8.3%) were called active. Rule as the data show it: active = survival mostly below about 52% (no sharp cut-off); inactive = mostly above about 56%. This is one part of the list.
Tested on: DeltatarO mutant
Experiment: S. aureus survival, RN4220 and DeltatarO strains – OD600, teichoic acid synthesis inhibitors, primary screen (AID 463173)
Settings: S. aureus RN4220 wild type/DeltatarO growth, OD600, 18 h, active compounds read low, screened at 18.75 µg/mL (by protocol)

Row | Structure (SMILES) | survival
1 | CC1=C(C(=O)NCc2ccc(Cl)cc2)C2(CCCCCC2)OC1=O | inactive: 92%
2 | COc1ccc(-c2ccc3c(N)c(C(=O)Nc4cccc(C)c4)sc3n2)cc1 | inactive: 82%
3 | COc1cccc(CSc2nc3n(n2)C(c2cccnc2)C(C(=O)Nc2ccccc2C)=C(C)N3)c1 (stereo not given) | inactive: 74%
4 | COc1ccccc1C(=O)Nc1ccc(C(=O)OCc2cc(=O)n3ccsc3n2)cc1 | inactive: 96%
5 | COc1ccccc1N(CC(O)Cn1ccnc1C)S(=O)(=O)c1ccc(C)cc1 (stereo not given) | inactive: 69%
6 | CCc1cccc(NC(=O)CN2C=NS(=O)(=O)c3ccccc32)c1 | inactive: 75%
7 | CCOC(=O)c1ccccc1NC(=O)N(Cc1ccco1)C1CCN(C(C)=O)CC1 | inactive: 126%
8 | CCOc1nc(NC(=O)NS(=O)(=O)Oc2ccccc2Cl)nc(-c2ccccc2)n1 | inactive: 70%
9 | Cc1ccc(C)n1-c1nnc(N2CCCC(C(=O)NCc3ccccc3)C2)s1 (stereo not given) | inactive: 96%
10 | Cc1ccc(NC(=O)CCc2c(C)nc3nc(C)nn3c2C)c(Cl)c1 | inactive: 89%
11 | Cc1ccc(NC(=O)c2ccc(Br)cc2)c(C(=O)c2ccccc2)c1 | active: -2%
12 | CC(C)CC(=O)Nc1ccc(Cl)c(-c2nc3ccccc3[nH]2)c1 | active: 39%
13 | COc1ccc(Br)cc1CSC(=N)N | inactive: 84%
14 | Cc1nc2nc(SCC(=O)NCc3ccccc3)nn2c(C)c1Cc1ccccc1 | active: 8%
15 | COc1ccc(OC)c(CNC(=O)CN2C(=O)CCn3nc(-c4cn(C)c5ccccc45)cc32)c1 | inactive: 60%
16 | N#Cc1ccc(NS(=O)(=O)c2ccc(-c3cnc(C4CC4)o3)cc2)cc1 | inactive: 69%
17 | Cc1ccc(-c2nn3c(-c4ccc(C)cc4)nnc3c3ccccc23)cc1 | active: 20%
18 | COc1ccccc1-n1c(SCC(=O)Nc2ccc(C)cc2)nc(O)cc1=O | inactive: 61%
19 | O=C(CCCn1c2ccccc2c(=O)c2ccccc21)Nc1ccc(F)cc1Cl | inactive: 51%
20 | COc1cc(CN(C(=O)c2oc3ccccc3c2C)C2CCS(=O)(=O)C2)cc(OC)c1OC (stereo not given) | inactive: 55%
21 | Cc1ccc(N(Cc2cccs2)C(=O)COc2ccccc2[N+](=O)[O-])cc1 | inactive: 60%
22 | CC(=O)Nc1ccc(S(=O)(=O)NCCc2csc3nc(-c4cccc(C)c4)nn23)cc1 | inactive: 80%
23 | Cc1cccc(-c2nc(Cn3c(SCc4cc(C)ccc4C)nc4ccncc43)c(C)o2)c1 | inactive: 53%

Row | Structure (SMILES) | survival
24 | O=C(NCc1ccccc1Cl)C1CCC(CNS(=O)(=O)c2ccc(Br)s2)CC1 (stereo not given) | inactive: 124%
25 | CCc1ccc(NC(=O)CSc2nc3ccsc3c(=O)n2C(C)CC)cc1 (stereo not given) | inactive: 101%
26 | COc1ccc(CCNC(=O)c2nn(C)c3c2CSc2ccccc2-3)cc1OC | inactive: 70%
27 | O=C(NCc1ccccc1)C(=O)NCC(c1cccnc1)N1CCN(c2ccccc2)CC1 (stereo not given) | active: 45%
28 | CN(C)c1ccc(NC(=O)CSC2=Nc3ccccc3C3=NC(CC(=O)NCc4ccccc4)C(=O)N23)cc1 (stereo not given) | inactive: 79%
29 | CCOc1ccccc1CN(CCc1ccc2c(c1)OCO2)Cc1cccc(OC)c1OC | active: 34%
30 | CCN1CCC(N(Cc2ccc3c(c2)OCO3)C(=O)Nc2ccccc2OC)CC1 | inactive: 89%
31 | COc1cc(NC(=O)C(CCS(C)(=O)=O)N2Cc3ccccc3C2=O)cc(OC)c1OC (stereo not given) | inactive: 55%
32 | COc1cccc(C2CC(=O)N3CN(C4CCCCC4)CSC3=C2C#N)c1 (stereo not given) | inactive: 88%
33 | CC1CN(C(=O)N2CCC(C(=O)NC3CCCCCC3)CC2)c2ccccc2O1 (stereo not given) | inactive: 68%
34 | CCCN1C(=O)c2[nH]nc(-c3ccc(F)cc3)c2C1c1ccccn1 (stereo not given) | inactive: 54%
35 | COc1cccc(NC(=O)c2cc3c(=O)n(Cc4cccnc4)ccc3nc2C)c1 | inactive: 101%
36 | COc1ccccc1CNC(=O)CCC1N=C2c3ccccc3N=C(SCC(=O)NCCc3ccc(OC)c(OC)c3)N2C1=O (stereo not given) | inactive: 92%
37 | COc1ccc(NC(=O)OCC(F)(F)F)cc1 | inactive: 72%
38 | CCc1ccc(-c2cc(C)no2)cc1S(=O)(=O)Nc1ccc(Cl)cc1 | inactive: 68%
39 | Cc1ccc(C2C(=O)N(C3CCCCCC3)CC(=O)N2C(C)C)cc1 (stereo not given) | inactive: 94%
40 | Cc1ccccc1C(=O)Nc1sc2c(c1C(=O)O)CCC(C(C)(C)C)C2 (stereo not given) | active: -2%
41 | O=C(CSc1nc2c([nH]c3ccccc32)c(=O)n1-c1ccc(F)cc1)NCC1CCCO1 (stereo not given) | inactive: 89%
42 | Cc1cc(=O)oc2cc(OCC(=O)N(C)C)c(Cl)cc12 | inactive: 60%
43 | O=C(CSc1nc2c([nH]c3ccccc32)c(=O)n1-c1ccccc1)N1CCCc2ccccc21 | inactive: 117%
44 | Cc1cc(C)c2c(n1)SCC(=O)N2CC(=O)Nc1ccccc1C | inactive: 101%
45 | CNC(=O)C1CCC(Cn2c(=O)c3sccc3n(CC(=O)NCc3ccc(C)cc3)c2=O)CC1 (stereo not given) | inactive: 80%
46 | COc1ccc(NC(=O)Cn2c(=O)oc3cc(Cl)ccc32)c(OC)c1 | inactive: 91%

Row | Structure (SMILES) | survival
47 | Cn1c(=O)oc2cc(S(=O)(=O)N3CCCC(C(=O)NCc4ccccc4Cl)C3)ccc21 (stereo not given) | inactive: 97%
48 | Nc1ccc(N2CCOCC2)c2nonc12 | inactive: 80%
49 | CCc1ccc(NC(=O)CSc2nc(C)c(C(=O)Nc3ccc(Cl)cc3)c(-c3ccc(OC)cc3)c2C#N)cc1 | inactive: 92%
50 | Cc1ccc(C)c(NC(=O)CCCn2c(C)c3cnn(-c4ccccc4)c(=O)c3c2C)c1 | inactive: 72%
51 | Cc1ccccc1C(=O)NC1CCN(CC(=O)NC2CCCCC2)CC1 | inactive: 97%
52 | COc1ccc(OC)c(C2=NS(=O)(=O)N(C)C(C(=O)Nc3ccc(C(C)=O)cc3)=C2)c1 | inactive: 78%
53 | Cc1ccc(C)c(NC(=O)C2CCN(c3ncnc4c3nc3n4CCCCC3)CC2)c1 | inactive: 72%
54 | O=C(Cn1nnc(-c2cccnc2)n1)N(c1ccccc1)c1ccccc1 | inactive: 76%
55 | COc1cc(CN(C(=O)COc2ccc(Cl)cc2)c2ccccn2)cc(OC)c1OC | inactive: 106%
56 | CC(C)(C)c1ccc(C(=O)NNc2ncnc3c2cnn3-c2ccc(Cl)cc2)cc1 | inactive: 107%
57 | Cc1cccc(C)c1NC(=O)NCCCN1CCN(c2ccccc2)CC1 | inactive: 134%
58 | Cc1cccc(NC(=O)c2cc(CN3CCOCC3)on2)c1C | inactive: 86%
59 | Cc1cccc(S(=O)(=O)c2cn(C)c3cc(N4CCCCCC4)c(F)cc3c2=O)c1 | inactive: 61%
60 | O=C(CSc1ccccc1)N1CCc2c([nH]c3ccccc23)C1c1ccc(Cl)cc1 (stereo not given) | active: 52%
61 | COc1ccc(NC(=O)Cn2nc3c(cc2=O)CCCC3)cc1Cl | inactive: 101%
62 | COc1cccc(C(=O)c2cn(CC(=O)Nc3cc(Cl)c(OC)cc3OC)c3nc(C)ccc3c2=O)c1 | inactive: 107%
63 | CC1=C(c2ccc(F)cc2)S(=O)(=O)N=C1N1CCC(C(=O)NCCc2ccccc2)CC1 | inactive: 78%
64 | Cc1nc(N2CCCC2)ncc1C(=O)NCc1ccc(Cl)cc1 | inactive: 85%
65 | Cc1ccc(NC(=O)NCCOCCn2c(=O)oc3ccccc32)c(C)c1 | inactive: 70%
66 | CC(C)c1ccc(Cc2cn3cc(-c4cc5ccccc5oc4=O)nc3s2)cc1 | inactive: 56%
67 | COc1cccc(-n2c(SCC(=O)Nc3cccc(C)c3)nc3c([nH]c4ccccc43)c2=O)c1 | inactive: 85%
68 | O=C(NCc1ccc(Cl)cc1)c1cc2ccc3cccnc3c2[nH]1 | inactive: 58%
69 | CCOC(=O)C1CCCN(C(=O)Cn2c(=O)cc(C)c3c(C)nn(C)c32)C1 (stereo not given) | inactive: 73%

Row | Structure (SMILES) | survival
70 | COc1ccc(S(=O)(=O)N2CCC(C(=O)NC(C)c3ccccc3)CC2)cc1 (stereo not given) | inactive: 79%
71 | O=c1sc2ccccc2c2nc[nH]c12 | inactive: 91%
72 | Cc1ccc(CN2C(=O)C(O)(CC(=O)c3ccc(C)cc3)c3ccccc32)cc1 (stereo not given) | inactive: 65%
73 | CCc1ccccc1NC(=O)CC(C)S(=O)(=O)c1ccc2c(c1)NC(=O)CO2 (stereo not given) | inactive: 80%
74 | CCNC(=O)C1CCN(c2nc3ccccc3nc2C(F)(F)F)CC1 | inactive: 144%
75 | O=C(CSc1nc2c([nH]c3ccccc32)c(=O)n1-c1ccccc1)NCc1ccc(F)cc1 | inactive: 66%
76 | CCc1ccc2occ(CC(=O)Nc3nnc(C)s3)c2c1 | inactive: 85%
77 | O=C(CN1C(=O)C2(SCC(=O)N2c2ccccc2)c2ccccc21)Nc1ccccc1C(F)(F)F (stereo not given) | inactive: 125%
78 | COc1ccccc1-c1cc(-c2ccc(O)cc2)nc(N)c1C#N | active: 12%
79 | CC(=O)c1nn(-c2ccc(OC(F)(F)F)cc2)nc1Nc1ccc(Cl)cc1 | inactive: 84%
80 | CCOc1ccc(NC(=O)Cn2cc(S(=O)(=O)c3ccc(C)cc3)c(=O)c3cc(F)ccc32)cc1 | inactive: 74%
81 | CCOc1ccc(-c2nnc(SCC(=O)NCc3ccc(Cl)cc3)o2)cc1 | inactive: 83%
82 | COc1ccc(CCNc2oc(-c3ccc(C)cc3)nc2C#N)cc1OC | inactive: 88%
83 | C/C(=N\OC(=O)c1nn(C)cc1Br)c1ccc(Cl)cc1Cl | inactive: 89%
84 | COc1ccc2[nH]cc(CCN=C(NC(=O)c3cccc(Cl)c3)Nc3nc(C)cc(C)n3)c2c1 | inactive: 56%
85 | S=C(NCc1ccc2c(c1)OCO2)Nc1ccccc1 | inactive: 97%
86 | C#CCN1CCOCC1 | inactive: 99%
87 | Cc1oc(-c2ccccc2F)nc1CS(=O)(=O)CC(=O)N1CCN(c2ccc(Cl)cc2)CC1 | active: 43%
88 | Cc1ccc(C)c(S(=O)(=O)c2cn(C)c3cc(F)c(F)cc3c2=O)c1 | inactive: 92%
89 | CCc1cccc(NC(=O)c2c(N3CCCC3=O)c3cc(C)ccc3n2C)c1 | inactive: 74%
90 | CC(=O)Nc1ccccc1-c1nc2ccccc2n(CC(=O)Nc2ccc(C)c(Cl)c2)c1=O | inactive: 101%

Reference: PubChem BioAssay AID463173 (ICCB-Longwood Screening Facility, Harvard Medical School, 2010)
